Experimental data reported in PubChem BioAssay AID485344 (National Center for Advancing Translational Sciences (NCATS), 2010).
Screen size: about 340,000 compounds; about 6,900 (2%) were called active. Cut-off read from the data, not from the text of the source: active = inhibition above about 30%; inactive = below that, where a call was filed. The list shows a part of the results, in another mix than the full data. Where no call is shown, the source filed none.

target: D(2) dopamine receptor (Homo sapiens) (UniProt P14416); assay: HTS Assay for Allosteric Antagonists of the Human D2 Dopamine Receptor: Primary Screen for Antagonists; details: HEK293 TREx D2 cells, calcium flux, dopamine EC80; at 10 µM; stronger effect = higher value; note: 0% is about no effect
Outline: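 In this primary screen, negative modulation is detected by tracking calcium flux after an EC80 dopamine challenge in inducible HEK293 T-REx D2 cells preexposed to test compound for 180 s.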

Chain of UniProt P14416 (P14416 whole entry, looked up): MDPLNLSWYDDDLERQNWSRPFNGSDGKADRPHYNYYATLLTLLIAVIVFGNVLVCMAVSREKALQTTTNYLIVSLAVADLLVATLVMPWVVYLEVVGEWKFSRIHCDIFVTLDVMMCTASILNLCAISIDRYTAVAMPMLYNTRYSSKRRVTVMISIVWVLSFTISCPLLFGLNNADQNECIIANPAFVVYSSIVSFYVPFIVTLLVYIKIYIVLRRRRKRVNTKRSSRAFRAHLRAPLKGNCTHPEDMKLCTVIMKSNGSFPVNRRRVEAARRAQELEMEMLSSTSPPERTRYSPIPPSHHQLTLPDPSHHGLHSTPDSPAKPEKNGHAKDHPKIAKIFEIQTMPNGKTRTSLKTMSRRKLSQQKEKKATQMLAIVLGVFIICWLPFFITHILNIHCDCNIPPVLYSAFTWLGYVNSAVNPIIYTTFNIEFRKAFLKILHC

Structure (SMILES)	inhibition
CCOc1ccc(-c2cc3nc(C4CCN(C(=O)OC(C)(C)C)CC4)c(C(=O)Nc4ccc(C)c(F)c4)cn3n2)cc1	-8.29%
Cc1ccccc1OCc1cc(=O)n2c(-c3ccccc3)csc2n1	-18.2%
CC(C)CCNC(=O)c1cn(C)c2ccc(S(=O)(=O)N3CCCC3)cc2c1=O	-11.5%
COc1ccccc1N1CCN(CC(=O)c2c(C)[nH]c3ccccc23)CC1	active: 30.9%
CCN1CCN(CCOc2ccccc2-c2ccccc2)CC1	active: 86.8%
CCn1cc(C(=O)N2CCN(c3cc(Cl)ccc3C)CC2)c(=O)c2cc(S(=O)(=O)N3CCOCC3)ccc21	-3.39%
CCC(=O)N1CCc2cc(Br)cc(S(=O)(=O)N3CCC(C(=O)N(CC)CC)CC3)c21	9.31%
COc1cccc(CNC(=O)c2ccc3c(c2)N(C)C(=O)C2CCCCN32)c1 (stereo not given)	-7.7%
CCc1ccc(NC(=O)C2CCC(CNS(=O)(=O)c3cccs3)CC2)cc1 (stereo not given)	5.69%
Cc1ccccc1NC(=O)c1c(NC(=O)c2ccncc2)sc2c1CCC(C(C)(C)C)C2 (stereo not given)	-14.1%
COc1ccccc1NC(=O)C1=C(C)Nc2nc(-c3ccco3)nn2C1c1ccccc1 (stereo not given)	4.06%
COc1ccccc1N1CCN(Cc2nc(-c3ccc(F)cc3)oc2C)CC1	active: 80%
CC1CCN(S(=O)(=O)c2ccc(C(=O)Nc3nc4ccc(F)cc4s3)cc2)CC1	-7.08%
CCOc1ccccc1NC(=O)c1cc2cc(C)ccc2n1C	-3.87%
CC(=O)c1ccc(NS(=O)(=O)c2cnc(N)nc2)cc1	0.0958%
Cc1cccc(NC(=O)CSC2=Nc3ccccc3C3=NC(CCC(=O)NCc4ccc(F)cc4)C(=O)N23)c1 (stereo not given)	-10.7%
CC(=O)c1cccc(Nc2ncnc3c2cnn3C)c1	-15.5%
O=C(NCCc1ccc(Cl)cc1)c1ccc(Cn2c(=O)[nH]c3ccccc3c2=O)cc1	8.02%
CCOc1ccccc1NC(=O)Cc1csc(COc2cccc(C)c2)n1	3.04%
Cc1ccc(-n2c3c(c(=O)[nH]c2=O)C(NS(=O)(=O)c2ccc(C)cc2)(C(F)(F)F)C(=O)N3)cc1 (stereo not given)	5.14%
CCOc1ccc(CN2C(=O)c3ccccc3Sc3ccc(C(=O)NCCc4ccccc4)cc32)cc1	-1.03%
COc1ccc2[nH]cc(CCNC(=O)Nc3cccc(F)c3)c2c1	21.7%
O=C(CCC1CCCCC1)Nc1ccc(C(=O)c2ccncc2)cc1	active: 47.7%
CC(=O)c1ccccc1OCC(O)CN1CCN(CCN2C(=O)c3cccc4cccc(c34)C2=O)CC1 (stereo not given)	active: 36.3%

Structure (SMILES)	inhibition
COc1cccc(CNC(=O)CCc2c(C)nc3c(c2C)c(=O)n(C)c(=O)n3C)c1	16.8%
CCc1ccccc1NC(=O)CSc1ncccc1C(=O)O	-8.11%
OCC1(Cc2ccccc2)CCN(Cc2cnn(-c3ccccc3F)c2)CC1	active: 31.2%
COc1ccc(Nc2ncnc3c2c(-c2ccccc2)cn3-c2ccc(C)c(Cl)c2)cc1OC	-20.8%
CCc1ccc(NC(=O)C2CCCN(c3nn4cc(-c5ccc(OC)cc5)nc4s3)C2)cc1 (stereo not given)	-17.9%
CCOc1ccc(C2C(C(=O)OC)=C(C)NC3=C2C(=O)c2ccccc23)cc1OC (stereo not given)	2.31%
Cc1ccc(NC(=O)c2c(C)oc3ccc(O)c(CN4CCCC4)c23)c(C)c1	9.7%
Cc1ccc(NC(=S)N2CCN(c3ccccn3)CC2)c(C)c1	active: 30.9%
CN(C1CCCCC1)S(=O)(=O)c1ccc2c(c1)c(=O)c(C(=O)NCc1ccccc1Cl)cn2C	-12.1%
O=C(Nc1ccc(F)cc1Cl)C1CCN(c2ncnc3c2nc2n3CCCCC2)CC1	-13.3%
O=C(NCC(c1ccc2c(c1)OCO2)N1CCN(c2ccc(F)cc2)CC1)c1cccc([N+](=O)[O-])c1 (stereo not given)	-19%
Cc1ccc2onc(CNC(=O)Nc3ccccc3C#N)c2c1	4.46%
Cc1ccc(Oc2coc3cc(OCC(=O)NC4CCCCC4)ccc3c2=O)cc1	-4.68%
Cc1ccc(NC(=O)C2CC(=O)NC(N3CCc4ccccc43)=N2)cc1 (stereo not given)	active: 43.7%
N#Cc1ccc(C(=O)Nc2ccccc2-c2nc3ccccc3s2)c(F)c1	-15.7%
NC(=O)C1CCN(C(=O)NC2CC(=O)N(c3ccc4c(c3)OCCO4)C2)CC1 (stereo not given)	active: 45.6%
COc1ccc(OCc2ccc(-c3nc(C#N)c(NCc4ccccc4)o3)o2)cc1	5.63%
CNS(=O)(=O)c1ccc(NC(=O)c2cnn3c(C(F)F)cc(-c4ccccc4)nc23)cc1	-10.8%
CCOC(=O)Cc1ccc(NC(=O)n2ncc3cc(Cl)ccc32)cc1	23.8%
Cc1c(-c2cccc(NC(=O)c3ccc(F)c(F)c3)c2)nc2ncccn12	-27.8%
Cc1nn(C)c2c1c(C(F)(F)F)cc(=O)n2C(C)C(=O)NCCc1ccc(Cl)cc1 (stereo not given)	0.697%
CCc1ccccc1NS(=O)(=O)c1ccc2oc(=O)c3ncn(C)c3c2c1	2.5%
COCCOC(=O)c1c(C)oc2c1cc(NS(=O)(=O)c1ccc(Cl)c(C)c1)c1ccccc12	-8.9%
COC(=O)c1ccc(NS(=O)(=O)c2c(C)nc3sccn3c2=O)cc1	1.01%

Structure (SMILES)	inhibition
CSc1ccc(CCNC(=O)c2ccc3c(c2)nc2n3CCCCC2)cc1	6.47%
CCOC(=O)Cn1c(=O)n(C2CCCCC2)c2nc(-c3ccc(OCC)cc3)nc(C(N)=O)c21	-2.44%
O=C(CSc1nccn1-c1ccc(Cl)cc1)Nc1cccc2ccccc12	24.3%
Cc1cc(OCC(=O)Nc2sc3c(c2C#N)CC(C)(C)NC3(C)C)c(C(C)C)cc1Cl	active: 34.4%
COc1ccc(Cn2ccnc2SCC(=O)NC2CCCC2)cc1	11.1%
CC(CCc1ccccc1)NC(=O)Cn1c(=O)nc(-c2ccccc2F)c2cc(Cl)ccc21 (stereo not given)	7.88%
C=C1CCN([C@@H](C)C(=O)OCc2cccc(C)c2)S(=O)(=O)c2ccccc21	active: 31%
Cc1cccc(C)c1NC(=O)CSc1ncc2c(n1)-c1ccc(Cl)cc1N(Cc1ccccc1)S2(=O)=O	-19%
Cc1oc(-c2ccccc2F)nc1CSCC(=O)NCc1ccccc1	5.41%
COc1ccc2c(c1)CC(C(=O)Nc1cccc(C)c1C)CO2 (stereo not given)	5.67%
CC(C)c1ccc(NC(=O)C2CCCN(S(=O)(=O)c3cccc4nsnc34)C2)cc1 (stereo not given)	10.6%
COc1ccccc1CNS(=O)(=O)c1cc(Br)cc2c1N(C(C)=O)C(C)C2 (stereo not given)	-17.7%
CCc1ccc(CNC(=O)C2CCCN(c3nnc(C)c4c(C)n(-c5ccc(OC)cc5)nc34)C2)cc1 (stereo not given)	-22.7%
Cc1c(C(=O)Nc2ccccc2Cl)sc2ncnc(N(C)C3CCCCC3)c12	17.7%
COc1cc(Cl)c(NC(=O)c2cc(CN3CCCC3)on2)c(OC)c1	-3.71%
Cc1ccc(N2CC(c3nnc(Cc4ccc(F)cc4)o3)CC2=O)cc1 (stereo not given)	8.1%
Cc1ccc(CSc2ncc(Cl)c(C(=O)Nc3nc4ccc(C)cc4s3)n2)cc1	-27.2%
Oc1c(C(c2ccccc2)N2CCN(c3cccc(Cl)c3)CC2)sc2nc(-c3ccco3)nn12 (stereo not given)	16.2%
O=c1c(=O)n(-c2ccccc2)ccn1Cc1cccc(C(F)(F)F)c1	-9.55%
Cc1ccc(NC(=O)c2cc3nc(-c4ccc5c(c4)OCO5)cc(C(F)(F)F)n3n2)cc1Cl	3.74%
O=C(NCc1ccc(F)cc1)c1ccc(CS(=O)Cc2ccc(Cl)cc2)o1 (stereo not given)	-0.641%
O=C(NCCn1cc(SCc2ccccc2F)c2ccccc21)c1cccs1	20%
CCc1ccc(CNC(=O)CSc2c3c(nc4ccc(Cl)cc24)CCCC3)cc1	13.5%
CCS(=O)(=O)NCC(c1ccco1)N1CCN(c2ccccc2)CC1 (stereo not given)	-14.4%

Structure (SMILES)	inhibition
CSc1nc(Nc2ccc(C)cc2)c(C#N)c(-c2ccccc2)n1	4.66%
Cc1ccc2c(c1)C(c1ccccc1)N(C(=O)c1ccc(S(=O)(=O)N3CCCCC3)cc1)CC(=O)N2 (stereo not given)	-5.86%
Fc1ccc(C(Nc2ccccc2Cl)c2nnc(-c3ccccc3Cl)o2)cc1 (stereo not given)	14.7%
Cc1ccc(NC(=O)c2cccc(N3CCCS3(=O)=O)c2)cc1C	-3.38%
Cc1ccc(NC(=O)[C@H]2O[C@@H]3OC(C)(C)O[C@@H]3[C@H]3OC(C)(C)O[C@H]32)cc1F	1.18%
CC(C(=O)Nc1ccccc1C(F)(F)F)n1nnc2sc3c(c2c1=O)CCCC3 (stereo not given)	7.28%
Cc1ccc(NC(=O)CN(C)S(=O)(=O)c2cccc3cccnc23)cc1F	5.93%
Clc1ccccc1CSc1nnc(-c2ccco2)c(-c2ccco2)n1	active: 34.6%
CCn1c(=O)c2cc(C(=O)N3CCN(c4cccc(OC)c4)CC3)sc2c2ccccc21	21.5%
CCOC(=O)Cc1ccc(NC(=O)N2CCc3c(sc4c3CCCC4)C2c2ccc(F)cc2)cc1 (stereo not given)	-1.8%
COc1ccc(Cl)cc1Nc1nc2ccc(C(=O)c3ccccc3)cc2n2cnnc12	13.1%
CN(CC(=O)Nc1ccc(Cl)cc1F)S(=O)(=O)c1ccc2c(c1)n(C)c(=O)c(=O)n2C	13.8%
Cc1cc(=O)oc2c3c(cc(OCC(=O)NCC(=O)N[C@H](C(=O)O)C(C)C)c12)OC(C)(C)CC3	active: 30.1%
CCc1ccc(C(c2ccccc2)c2c[nH]c3ccc(C)cc23)s1 (stereo not given)	-6.49%
Cc1ccccc1NC(=O)C(=O)NCC1(c2ccccc2)CCCC1	-24.9%
COc1ccc(Cl)cc1NC(=O)c1cnc(SC)nc1-c1ccccc1	-3.17%
CCN1CCN(c2ncc3c(n2)CCN(Cc2sccc2C)C3)CC1	-21.6%
COc1cc(NC(=O)CC(C)S(=O)(=O)c2ccc3c(c2)CCN3C(C)=O)cc(OC)c1OC (stereo not given)	2.43%
Cc1cc2[nH]c(=O)c(=O)[nH]c2cc1S(=O)(=O)N1CCN(c2cccc(C(F)(F)F)c2)CC1	-9.57%
Cc1cccc(-n2cc(-c3ccccc3)c3c(N4CCC(C)CC4)ncnc32)c1	12.7%
CCCCN(CC)CCNC(=O)CCn1cnc2onc(-c3ccc(F)cc3)c2c1=O	2.91%
COc1ccc(NC(=O)c2sc3nc(-c4cc5ccc(OC)cc5oc4=O)[nH]c(=O)c3c2C)cc1	13.6%
COc1ccc(-c2cn3nc(N4CCCC(C(=O)Nc5cc(C)ccc5C)C4)sc3n2)cc1 (stereo not given)	-7.58%
